Data from the supplement of paper PMC7125110.
± gives the standard error. Variants at the floor of the assay are shown more often than the library holds them.

B1: glmS ribozyme (parent)
chain: AUAAAAGCGCCAGAACUACAGAAAUGUAGUUGACGAGGAGGAGGUUUAUCGAAUUUUCGGCGGAUGCCUCCAAA

Assays:
Details in all cases: with glucosamine-6-phosphate
glucosamine-6-phosphate [1] = variants of: B1; assay: self-cleavage kobs at 40 uM GlcN6P; higher = faster cleavage; RNA array
In short: (§1)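 Barcoded ribozyme variants were transcribed in situ on sequenced MiSeq chips by E. coli RNA polymerase. At 37 °C, a hybridised Cy3 probe tracked them while glucosamine-6-phosphate (40 μM to 10 mM) in HEPES/KCl/Mg(OAc)2 buffer flowed in and tiles were imaged over ~14 h. Per-tile medians of signals normalised to baseline and to non-cleaving reference variants were fit to one- or two-exponential decays, giving kobs. kcat and KM came from weighted Michaelis–Menten fits across concentrations.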

glucosamine-6-phosphate [2] = variants of: B1; assay: self-cleavage kobs at 640 uM GlcN6P; higher = faster cleavage; RNA array
In short: as §1

glucosamine-6-phosphate [3] = variants of: B1; assay: self-cleavage kobs at 160 uM GlcN6P; higher = faster cleavage; RNA array
In short: as §1

glucosamine-6-phosphate [4] = variants of: B1; assay: self-cleavage kobs at 2500 uM GlcN6P; higher = faster cleavage; RNA array
In short: as §1

glucosamine-6-phosphate [5] = variants of: B1; assay: self-cleavage kobs at 10000 uM GlcN6P; higher = faster cleavage; RNA array
In short: as §1

Variant	self-cleavage kobs at 40 uM GlcN6P (glucosamine-6-phosphate [1]) [s⁻¹]	self-cleavage kobs at 640 uM GlcN6P (glucosamine-6-phosphate [2]) [s⁻¹]	self-cleavage kobs at 160 uM GlcN6P (glucosamine-6-phosphate [3]) [s⁻¹]	self-cleavage kobs at 2500 uM GlcN6P (glucosamine-6-phosphate [4]) [s⁻¹]	self-cleavage kobs at 10000 uM GlcN6P (glucosamine-6-phosphate [5]) [s⁻¹]
U54G C67A	0.000326 ± 7.1e-05	0.000916 ± 0.00018	0.000481 ± 9.8e-05	0.00208 ± 0.00067	0.00623 ± 0.0012
A48U U57C	< 1e-05	–	< 1e-05	< 1e-05	< 1e-05
A52U U56C	< 1e-05	< 1e-05	–	–	–
A52G G60A U65G C71U	< 1e-05	–	–	–	–
U54A C61U C71G	< 1e-05	–	–	–	–
U54C G62C	< 1e-05	–	< 1e-05	–	–
U55A A64U C68U	< 1e-05	–	–	–	–
A48G C50G C61G	0.000172 ± 6.6e-05	–	–	–	–
U55C U69G	< 1e-05	–	–	–	–
A53U C68U	0.000159 ± 2.1e-05	0.000788 ± 9.5e-05	0.000357 ± 0.00011	0.00421 ± 0.00073	0.00507 ± 0.00083
G51C A53U	< 1e-05	–	< 1e-05	< 1e-05	–
U47G U54A	0.000306 ± 4.7e-05	0.00157 ± 0.00052	–	–	–
C50U G51A U65A	< 1e-05	–	–	< 1e-05	–
G51C C70G	< 1e-05	–	< 1e-05	< 1e-05	–
G51C C70U	< 1e-05	< 1e-05	< 1e-05	< 1e-05	< 1e-05
A48C C71G	< 1e-05	–	< 1e-05	–	–
U49A G60U	< 1e-05	–	< 1e-05	–	< 1e-05
U49C A64G	< 1e-05	< 1e-05	< 1e-05	< 1e-05	< 1e-05
U49C A64U	< 1e-05	< 1e-05	< 1e-05	–	< 1e-05

Variant	self-cleavage kobs at 40 uM GlcN6P (glucosamine-6-phosphate [1]) [s⁻¹]	self-cleavage kobs at 640 uM GlcN6P (glucosamine-6-phosphate [2]) [s⁻¹]	self-cleavage kobs at 160 uM GlcN6P (glucosamine-6-phosphate [3]) [s⁻¹]	self-cleavage kobs at 2500 uM GlcN6P (glucosamine-6-phosphate [4]) [s⁻¹]	self-cleavage kobs at 10000 uM GlcN6P (glucosamine-6-phosphate [5]) [s⁻¹]
C50G C58A C68G C71U	9.15e-05 ± 1.8e-05	–	–	–	0.00024 ± 5.2e-05
A48U A52C U65A	< 1e-05	–	–	–	< 1e-05
A53U U54C G63C C70U	< 1e-05	–	–	–	–
A53C G66A	0.000154 ± 2.2e-05	0.00107 ± 0.00017	0.000292 ± 6.4e-05	0.00288 ± 0.00047	0.00374 ± 0.00053
A48G C50U C70U	< 1e-05	–	–	–	–
U55C C70U	2.44e-05 ± 9e-06	0.000172 ± 4.7e-05	7.16e-05 ± 3e-05	–	–
U55A G62A	< 1e-05	–	–	–	–
C50U C58A G63A	< 1e-05	–	–	–	< 1e-05
A48G C68A	< 1e-05	–	–	–	–
A48G C68G	4.65e-05 ± 1.2e-05	7.32e-05 ± 1.6e-05	–	5.41e-05 ± 1.2e-05	5.84e-05 ± 8.1e-06
G51A	< 1e-05	–	–	–	< 1e-05
A52C G63U	< 1e-05	–	< 1e-05	–	< 1e-05
A52C C70U	< 1e-05	–	–	–	–
C50G U57A G63U A64U	7.9e-05 ± 2.7e-05	–	–	–	–
G51A C58U G59U	< 1e-05	–	–	–	–
A53C U54A	0.000184 ± 2.3e-05	–	–	–	–
U55C G59U	< 1e-05	–	–	–	–
U49C G59U C67U	< 1e-05	–	–	–	–
G51U G62A	< 1e-05	–	< 1e-05	–	–

Variant	self-cleavage kobs at 40 uM GlcN6P (glucosamine-6-phosphate [1]) [s⁻¹]	self-cleavage kobs at 640 uM GlcN6P (glucosamine-6-phosphate [2]) [s⁻¹]	self-cleavage kobs at 160 uM GlcN6P (glucosamine-6-phosphate [3]) [s⁻¹]	self-cleavage kobs at 2500 uM GlcN6P (glucosamine-6-phosphate [4]) [s⁻¹]	self-cleavage kobs at 10000 uM GlcN6P (glucosamine-6-phosphate [5]) [s⁻¹]
A48U G51A C68G	< 1e-05	–	–	–	< 1e-05
C50U U54C	< 1e-05	–	–	–	–
U47C U65C	< 1e-05	–	–	–	< 1e-05
U47C U65G	4.89e-05 ± 1.1e-05	0.000565 ± 0.00011	–	0.00189 ± 0.00047	0.00312 ± 0.0006
U54C C71U	0.000802 ± 8.6e-05	0.00401 ± 0.00061	0.00142 ± 0.00023	0.0101 ± 0.0027	0.036 ± 0.0094
A48C U49C	< 1e-05	–	–	< 1e-05	< 1e-05
U55C U65C	< 1e-05	–	–	–	–
A48U A53U G60A G66U	< 1e-05	–	–	–	–
C50A A64U	< 1e-05	< 1e-05	–	–	< 1e-05
A52U G60C A64G C67A	< 1e-05	–	–	–	–
U49A C50G G59C G63U	< 1e-05	–	–	–	–
U49A U54C	< 1e-05	–	–	–	–
A53U U54A C68U	0.00036 ± 9.6e-05	–	–	–	–
A53U U65C C71A	< 1e-05	–	–	–	–
U55C C71G	< 1e-05	–	–	–	–
C50A G62U	< 1e-05	–	–	–	< 1e-05
A52C U55A G63U	< 1e-05	< 1e-05	–	–	–
U54C C70U	0.000628 ± 8e-05	0.00435 ± 0.0008	0.00162 ± 0.00035	–	0.00879 ± 0.0016
U54C G59C	< 1e-05	< 1e-05	< 1e-05	< 1e-05	–
